Source: the supplement of paper PMC8728848
The other results are listed elsewhere or left out.

What was measured:
Assay in all cases: glycan array binding signal (z-score within array); higher = stronger binding
Conditions in all cases: glycan notation: IUPAC condensed, linker removed
[1] = target: Fuc(a1-2)[Gal(a1-3)]Gal(b1-4)GlcNAc(b1-2)Man(a1-3)[Fuc(a1-2)[Gal(a1-3)]Gal(b1-4)GlcNAc(b1-2)Man(a1-6)]Man(b1-4)GlcNAc(b1-4)[Fuc(a1-6)]GlcNAc
Procedure, shortened: (§1)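 Negative Z-scores can be read as non-binding. The Z-score is calculated within each array and then averaged across arrays of one protein sequence at different concentrations or buffers and across linkers. Arrays, 3228 in all, were curated from the Consortium for Functional Glycomics database and kept only where the protein sequence was available.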

[2] = target: Fuc(a1-2)[Gal(a1-3)]Gal(b1-4)GlcNAc(b1-3)GalNAc
Procedure, shortened: as §1

[3] = target: Fuc(a1-2)[Gal(a1-3)]Gal(b1-4)GlcNAc(b1-3)[Fuc(a1-2)[Gal(a1-3)]Gal(b1-4)GlcNAc(b1-6)]GalNAc
Procedure, shortened: as §1

[4] = target: Fuc(a1-2)[Gal(a1-3)]Gal(b1-4)GlcNAc(b1-6)GalNAc
Procedure, shortened: as §1

[5] = target: Fuc(a1-2)[Gal(a1-3)]Gal(b1-4)[Fuc(a1-3)]Glc
Procedure, shortened: as §1

[6] = target: Fuc(a1-2)[Gal(a1-3)]Gal(b1-4)[Fuc(a1-3)]GlcNAc
Procedure, shortened: as §1

[7] = target: Fuc(a1-2)[Gal(a1-3)]Gal(b1-4)[Fuc(a1-3)]GlcNAc(b1-3)GalNAc
Procedure, shortened: as §1

[8] = target: Fuc(a1-2)[Gal(a1-4)]Gal(b1-4)GlcNAc
Procedure, shortened: as §1

[9] = target: Fuc(a1-2)[GalNAc(a1-3)]Gal
Procedure, shortened: as §1

[10] = target: Fuc(a1-2)[GalNAc(a1-3)]Gal(b1-3)GalNAc(a1-3)[Fuc(a1-2)]Gal(b1-4)GlcNAc
Procedure, shortened: as §1

[11] = target: Fuc(a1-2)[GalNAc(a1-3)]Gal(b1-3)GalNAc(b1-3)Gal(a1-4)Gal(b1-4)Glc
Procedure, shortened: as §1

[12] = target: Fuc(a1-2)[GalNAc(a1-3)]Gal(b1-3)GlcNAc
Procedure, shortened: as §1

[13] = target: Fuc(a1-2)[GalNAc(a1-3)]Gal(b1-3)GlcNAc(b1-2)Man(a1-3)[Fuc(a1-2)[GalNAc(a1-3)]Gal(b1-3)GlcNAc(b1-2)Man(a1-6)]Man(b1-4)GlcNAc(b1-4)GlcNAc
Procedure, shortened: as §1

[14] = target: Fuc(a1-2)[GalNAc(a1-3)]Gal(b1-3)GlcNAc(b1-2)Man(a1-3)[Fuc(a1-2)[GalNAc(a1-3)]Gal(b1-3)GlcNAc(b1-2)Man(a1-6)]Man(b1-4)GlcNAc(b1-4)[Fuc(a1-6)]GlcNAc
Procedure, shortened: as §1

[15] = target: Fuc(a1-2)[GalNAc(a1-3)]Gal(b1-3)GlcNAc(b1-3)GalNAc
Procedure, shortened: as §1

[16] = target: Fuc(a1-2)[GalNAc(a1-3)]Gal(b1-3)GlcNAc(b1-6)GalNAc
Procedure, shortened: as §1

[17] = target: Fuc(a1-2)[GalNAc(a1-3)]Gal(b1-4)Glc
Procedure, shortened: as §1

[18] = target: Fuc(a1-2)[GalNAc(a1-3)]Gal(b1-4)GlcNAc
Procedure, shortened: as §1

[19] = target: Fuc(a1-2)[GalNAc(a1-3)]Gal(b1-4)GlcNAc(b1-2)Man
Procedure, shortened: as §1

[20] = target: Fuc(a1-2)[GalNAc(a1-3)]Gal(b1-4)GlcNAc(b1-2)Man(a1-3)[Fuc(a1-2)[GalNAc(a1-3)]Gal(b1-4)GlcNAc(b1-2)Man(a1-6)]Man(b1-4)GlcNAc(b1-4)GlcNAc
Procedure, shortened: as §1

[21] = target: Fuc(a1-2)[GalNAc(a1-3)]Gal(b1-4)GlcNAc(b1-2)Man(a1-3)[Fuc(a1-2)[GalNAc(a1-3)]Gal(b1-4)GlcNAc(b1-2)Man(a1-6)]Man(b1-4)GlcNAc(b1-4)[Fuc(a1-6)]GlcNAc
Procedure, shortened: as §1

[22] = target: Fuc(a1-2)[GalNAc(a1-3)]Gal(b1-4)GlcNAc(b1-3)Gal(b1-4)GlcNAc
Procedure, shortened: as §1

[23] = target: Fuc(a1-2)[GalNAc(a1-3)]Gal(b1-4)GlcNAc(b1-3)Gal(b1-4)GlcNAc(b1-3)Gal(b1-4)GlcNAc
Procedure, shortened: as §1

[24] = target: Fuc(a1-2)[GalNAc(a1-3)]Gal(b1-4)GlcNAc(b1-3)GalNAc
Procedure, shortened: as §1

[25] = target: Fuc(a1-2)[GalNAc(a1-3)]Gal(b1-4)GlcNAc(b1-3)[Fuc(a1-2)[GalNAc(a1-3)]Gal(b1-4)GlcNAc(b1-6)]GalNAc
Procedure, shortened: as §1

[26] = target: Fuc(a1-2)[GalNAc(a1-3)]Gal(b1-4)GlcNAc(b1-6)GalNAc
Procedure, shortened: as §1

[27] = target: Fuc(a1-2)[GalNAc(a1-3)]Gal(b1-4)[Fuc(a1-3)]GlcNAc
Procedure, shortened: as §1

[28] = target: Fuc(a1-2)[GalNAc(a1-3)]Gal(b1-4)[Fuc(a1-3)]GlcNAc(b1-3)GalNAc
Procedure, shortened: as §1

[29] = target: Fuc(a1-2)[GalNAc(a1-4)]Gal(b1-4)GlcNAc
Procedure, shortened: as §1

[30] = target: Fuc(a1-2)[GalNAc(b1-3)]Gal
Procedure, shortened: as §1

Fuc(a1-3)GlcNAc = target: Fuc(a1-3)GlcNAc
Procedure, shortened: as §1

[31] = target: Fuc(a1-3)[Gal(b1-4)]Glc6S
Procedure, shortened: as §1

[32] = target: Fuc(a1-3)[Gal(b1-4)]GlcNAc
Procedure, shortened: as §1

[33] = target: Fuc(a1-3)[Gal(b1-4)]GlcNAc(b1-2)Man
Procedure, shortened: as §1

[34] = target: Fuc(a1-3)[Gal(b1-4)]GlcNAc(b1-2)Man(a1-3)[Fuc(a1-3)[Gal(b1-4)]GlcNAc(b1-2)Man(a1-6)]Man(b1-4)GlcNAc(b1-4)GlcNAc
Procedure, shortened: as §1

[35] = target: Fuc(a1-3)[Gal(b1-4)]GlcNAc(b1-2)Man(a1-3)[Fuc(a1-3)[Gal(b1-4)]GlcNAc(b1-2)Man(a1-6)]Man(b1-4)GlcNAc(b1-4)[Fuc(a1-6)]GlcNAc
Procedure, shortened: as §1

[36] = target: Fuc(a1-3)[Gal(b1-4)]GlcNAc(b1-3)Gal(b1-3)[Fuc(a1-4)]GlcNAc
Procedure, shortened: as §1

B1: Clone730PsrP (Streptococcus pneumoniae) (protein)
chain: MDHHHHHHHHHHASENLYFQGAMVVGSQTAAATEATAKKVEEDRKKPASDYVASVTNVNLQSYAKRRKRSVDSIEQLLASIKNAAVFSGNTIVNGAPAINASLNIAKSETKVYTGEGVDSVYRVPIYYKLKVTNDGSKLTFTYTVTYVNPKTNDLGNISSMRPGYSIYNSGTSTQTMLTLGSDLGKPSGVKNYITDKNGRQVLSYNTSTMTTQGSGYTWGNGAQMNGFFAKKGYGLTSSWTVPITGTDTSFTFTPYAARTDRIGINYFNGGGKVVESSTT
For B1, the “glycan array binding signal (z-score)” value [1] was -0.453, the “glycan array binding signal (z-score)” value [2] was -0.574 and the “glycan array binding signal (z-score)” value [3] was 0.84. The “glycan array binding signal (z-score)” value [4] was -0.367, the “glycan array binding signal (z-score)” value [5] was -0.546 and the “glycan array binding signal (z-score)” value [6] was 0.179. For the same binder, the “glycan array binding signal (z-score)” value [7] was -0.513, the “glycan array binding signal (z-score)” value [8] was 1.7 and the “glycan array binding signal (z-score)” value [9] was -0.384. The “glycan array binding signal (z-score)” value [10] was -0.462, the “glycan array binding signal (z-score)” value [11] was 0.106 and the “glycan array binding signal (z-score)” value [12] was 1.49. The “glycan array binding signal (z-score)” value [13] was -0.426, the “glycan array binding signal (z-score)” value [14] was -0.573 and the “glycan array binding signal (z-score)” value [15] was 0.137. The “glycan array binding signal (z-score)” value [16] was -0.628, the “glycan array binding signal (z-score)” value [17] was -0.55 and the “glycan array binding signal (z-score)” value [18] was -0.464. For the same binder, the “glycan array binding signal (z-score)” value [19] was -0.091, the “glycan array binding signal (z-score)” value [20] was -0.234 and the “glycan array binding signal (z-score)” value [21] was 2.17. For the same binder, the “glycan array binding signal (z-score)” value [22] was -0.179, the “glycan array binding signal (z-score)” value [23] was 0.462 and the “glycan array binding signal (z-score)” value [24] was -0.167. For the same binder, the “glycan array binding signal (z-score)” value [25] was -0.331, the “glycan array binding signal (z-score)” value [26] was -0.529 and the “glycan array binding signal (z-score)” value [27] was 0.983. For the same binder, the “glycan array binding signal (z-score)” value [28] was 0.059, the “glycan array binding signal (z-score)” value [29] was -0.48 and the “glycan array binding signal (z-score)” value [30] was -0.3. The “glycan array binding signal (z-score)” value (Fuc(a1-3)GlcNAc) was -0.124, the “glycan array binding signal (z-score)” value [31] was 0.699 and the “glycan array binding signal (z-score)” value [32] was 0.039. The “glycan array binding signal (z-score)” value [33] was -0.286, the “glycan array binding signal (z-score)” value [34] was -0.095 and the “glycan array binding signal (z-score)” value [35] was -0.534. The “glycan array binding signal (z-score)” value [36] was -0.389.
